# Results as given in PMC6919601, “Identification of Plasmodium dipeptidyl aminopeptidase allosteric inhibitors by high throughput screening” (PLoS ONE, 2019).
# Values joined by “and” are separate entries in the source; they are usually repeats but may differ in a detail not shown here. Equal entries are not always repeated. Hit rate of the full screen: of about 110,000 compounds, about 230 (0.21%) showed an effect of 50% or more. This is one part of the list.
# Molecular target: DPAP1 (Plasmodium falciparum, UniProt Q8IIJ9)
# Sequence (Q8IIJ9 whole entry, looked up): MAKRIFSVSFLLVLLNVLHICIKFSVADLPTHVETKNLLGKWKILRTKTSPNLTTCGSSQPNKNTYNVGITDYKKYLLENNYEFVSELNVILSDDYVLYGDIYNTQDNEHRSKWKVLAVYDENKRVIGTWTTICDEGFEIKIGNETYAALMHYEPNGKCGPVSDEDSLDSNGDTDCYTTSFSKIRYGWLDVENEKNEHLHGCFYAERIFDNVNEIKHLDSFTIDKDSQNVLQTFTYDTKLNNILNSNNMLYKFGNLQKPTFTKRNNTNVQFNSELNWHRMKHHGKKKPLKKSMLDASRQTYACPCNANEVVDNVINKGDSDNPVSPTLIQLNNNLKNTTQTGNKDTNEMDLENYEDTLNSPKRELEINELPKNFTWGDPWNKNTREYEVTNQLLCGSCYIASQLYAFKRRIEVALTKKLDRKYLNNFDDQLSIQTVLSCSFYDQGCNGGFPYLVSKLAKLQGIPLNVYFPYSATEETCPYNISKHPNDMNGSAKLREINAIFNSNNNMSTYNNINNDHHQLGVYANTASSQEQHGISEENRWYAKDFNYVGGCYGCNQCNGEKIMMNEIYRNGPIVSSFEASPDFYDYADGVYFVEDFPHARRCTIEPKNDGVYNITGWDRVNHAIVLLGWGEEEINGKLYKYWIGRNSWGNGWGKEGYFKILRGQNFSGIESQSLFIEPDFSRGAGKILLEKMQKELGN
# Experiment: primary screen, percent inhibition; read by cleavage of a fluorogenic dipeptide substrate; higher = more effect of the substance
# Design: species or system P. falciparum D10 trophozoite lysates; single well
# 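Further: 30 min substrate incubation versus DMSO and 10 µM JCP410 controls.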
row,Structure (SMILES),% Inhibition @ 10 uM
1,O=C(CCC1CCCCC1)Nc1ccc(S(=O)(=O)Nc2cnc3ccccc3n2)cc1,-4.16%
2,CC(C)NC(=S)N1CCN(Cc2ccc3c(c2)OCO3)CC1,4.32%
3,Cc1ccsc1/C=C1N=C(/C=C/c2ccc(Cl)cc2)OC\1=O,2.44%
4,COC(=O)C1(c2ccc(OC)c(OC)c2)CCCC1,-1.56%
5,Cc1ccc(CNc2ncc(-c3ccccc3)n2C)cc1,-2.91%
6,SC1=NC2=C(C(c3ccc(Cl)cc3Cl)N1)N1CCC2CC1 (centres unmarked),-4.43%
7,Sc1nnc(-c2ccc3ccccc3n2)n1Cc1ccccc1,-5.03%
8,Cc1cccc(CN2CCCN(C)CC2)c1,4.38%
9,CCCCC(C(=O)O)N1C(=O)c2cc(Cl)c(Cl)cc2C1=O (centres unmarked),3.05%
10,CCN(CC)CCCNC(=O)c1ccc2nc(N3CCC(C)CC3)sc2c1,0.828%
11,Cc1cc(C)n(-c2nnc(C)n2N)n1,-3.63%
12,Cc1ccc(C(=O)Nc2noc3ccccc23)cc1,2.19%
13,CC(C)C[C@H](NC(=O)c1ccc(-c2ccccc2)s1)C(=O)NCC#N,-0.0207%
14,COc1ccc(NC(=O)CSc2nc3c(cc2C#N)CCCCC3)cc1OC,-8.48%
15,O=C(CCc1nnc2n(Cc3ccccc3Cl)c(=O)c3ccccc3n12)NCCN1CCOCC1,0.981%
16,CC(=O)NC(=O)/C(C#N)=C/Nc1cccc(C(C)=O)c1,-1.06%
17,Cc1ccccc1C(=O)N1CCN(c2ccc(NC(=O)c3cccs3)cc2)CC1,-4.01%
18,CCCNC(=O)c1c(C)[nH]c(C(C)=O)c1C,-0.361%
19,CCN(Cc1ccccc1)C(=O)c1oc(=O)c2ccccc2c1-c1ccc(C)cc1,-5.22%
20,COc1cc2c(cc1OC)C(c1ccc3c(c1)OCO3)N(C)CC2 (centres unmarked),6.96%
21,CCOc1ccc(OCc2ccc(C(=O)N3CCC(C)CC3)o2)cc1,0.413%
22,COc1cc(CCC(=O)NCc2ccc(F)cc2)on1,-0.946%
23,O=C(Nc1ccc2c(c1)OCO2)c1ccc(Br)o1,-0.294%
24,CCN(CCN(C)C)Cc1ccc(-c2ccccc2)cc1,-4.04%
25,CC(C)OCCCn1c(=O)c2ccccc2n2c(-c3cc(Br)cs3)nnc12,3.3%
26,CC1=C(C(=O)Nc2ccccn2)C(c2ccncc2)C2=C(O)CC(C)(C)CC2=N1 (centres unmarked),-4.49%

row,Structure (SMILES),% Inhibition @ 10 uM
1,Clc1ccccc1N1CCN(Cc2cccc3ccccc23)CC1,1.55%
2,Cc1ccc2c(c1)-c1ncc(-c3noc4ccccc34)cc1CO2,1.25%
3,Cc1cc(OCc2cc(=O)n3c(-c4ccccc4)csc3n2)ccc1Cl,-0.495%
4,Cn1c(=O)c2c(nc(CN3CCCCC3)n2CC(N)=O)n(C)c1=O,0.317%
5,Oc1ncnc2c1nnn2Cc1ccccc1,-1.24%
6,COc1ccc(-c2cc(C(=O)N3CCCCC3)no2)cc1OC,-1.84%
7,CCN(CC)CCN(CC)Cc1cc(OC)ccc1OC,7.79%
8,COc1ccc2nc(N=C(NC(C)=O)NC(C)=O)nc(C)c2c1,0.587%
9,CCCCCNC(=O)C1CC=CCC1C(=O)O (centres unmarked),-6.69%
10,CC(C)N(Cc1ccccc1)C(=O)Cn1ncc2c(=O)oc3ccccc3c21,-3.94%
11,CC(C)CC(C(=O)Nc1ccc(C2CCCC2)cc1)N1CCN(C)CC1 (centres unmarked),0.873%
12,COc1ccc(C2Nc3ccccc3C(=O)N2Cc2ccco2)cc1COc1ccc(NC(C)=O)cc1 (centres unmarked),16.4%
13,COc1cccc(CN2CCN(Cc3cccc(OC)c3OC)CC2)c1,-3.83%
14,COc1ccc(Br)cc1C(=O)Nc1ccc(NC(=O)c2ccco2)cc1,-0.48%
15,COc1ccc(OCC(=O)NCCc2nc3ccccc3[nH]2)cc1,-0.0267%
16,CC(=O)c1c(C)nc2n(C)c3ccccc3n12,-7.06%
17,O=C(c1cc(Sc2cccc(Cl)c2)nc2ccccc12)N1CCC2(CC1)OCCO2,-2.26%
18,COc1ccccc1-c1cc2ccccc2c(N)n1,-1.95%
19,Cc1ccc(/C=C(\C#N)C(N)=S)c(C)c1,0.968%
20,COc1ccccc1CNC(=O)c1ccc(C(C)(C)C)cc1,0.247%
21,CCOc1ccccc1C(=O)Nc1ccc(C)c(Cl)c1,-1.07%
22,CC(=O)c1[nH]nnc1Nc1nc(C)cc(C)n1,-1.05%
23,CCOCCCNC(=O)c1c(NC(=O)Cc2coc3cc(C)cc(C)c23)sc2c1CCC2,1%
24,CC(=O)c1cc(F)c(N2CCN(C)CC2)cc1C,3.01%
25,CCN1CCN(c2ccc(NC(=O)c3cccnc3Cl)cc2)CC1,-4.12%
26,O=C1CC(N2CCOCC2)C(=O)N1c1ccc(OC(F)(F)Cl)cc1 (centres unmarked),5.24%

row,Structure (SMILES),% Inhibition @ 10 uM
1,O=C(Nc1ccccc1C(=O)Nc1ccccc1)c1ccccc1Br,-4.72%
2,Cc1ccc2c(c1)-c1c(cnn1CC(=O)NCCN1CCOCC1)CO2,0.851%
3,CCn1c(C)nc2cc(S(N)(=O)=O)ccc21,3.16%
4,O=C(C1CCCN(S(=O)(=O)c2ccc3nc(O)ccc3c2)C1)N1CCC(Cc2ccccc2)CC1 (centres unmarked),-2.55%
5,O=C1CC(N2CCN(CCOCCO)CC2)C(=O)N1c1ccccc1 (centres unmarked),2.01%
6,Cc1cc2c(cc1Br)NC(=O)C21C(C#N)=C(N)OC2=C1C(=O)CCC2 (centres unmarked),0.98%
7,Cc1cc(C)c2c(N)c(C(=O)Nc3ccccn3)sc2n1,-3.04%
8,CN1CC=C(CNc2cccc3ccccc23)CC1,0.878%
9,CSc1c(CNC(=O)c2ccccc2)c2ccccc2n1C,-2.32%
10,O=C(Nc1ccccc1[N+](=O)[O-])c1cccc(S(=O)(=O)Nc2ccc(Br)cc2)c1,-1.77%
11,CCOCCCNCc1c(C(=O)O)n(C)c2ccccc12,-1.44%
12,COc1cc(C2c3c(oc4cc(C)c(C)cc4c3=O)C(=O)N2c2ccc(C)cn2)ccc1O (centres unmarked),-5%
13,CCOC(=O)c1c(C)n(C)c2ccc(OCC(O)CNC3CCCCC3C)cc12 (centres unmarked),-1.33%
14,Cc1ccc(-n2ncc(C(=O)NCCN3CCOCC3)c2C2CCN(C(=O)OC(C)(C)C)CC2)cc1,1.41%
15,COc1ccccc1/C=C1\CCCC2=C1Nc1nnnn1C2c1ccccc1OC (centres unmarked),0.0842%
16,COc1ccc(NC2=C(Cl)C(=O)N(c3cc(Cl)ccc3OC)C2=O)cc1,2.15%
17,CCc1ccc(OCC(=O)O/N=C(\N)c2ccc(OC)cc2)cc1,3.25%
18,O=S(=O)(Nc1ccc(S(=O)(=O)N2CCCC2)cc1)c1cc(Cl)ccc1Cl,0.658% and 4.44%
19,Cc1nn(C(CC(=O)O)C(=O)O)c(C)c1Br (centres unmarked),2.42%
20,CCOc1ccccc1CN1CCc2c([nH]c3ccccc23)C1,-6.82%
21,CCOC(=O)c1nnc(N)s1,-4.46%
22,O=C1OC(/C=C/c2ccc(Cl)cc2)=NC/1=C/C=C/c1ccccc1,-5.29%
23,Cc1cccc(C)c1NC(=O)c1cccc(OC(F)F)c1,0.163%
24,CC1CCCN(S(=O)(=O)c2ccc(S(=O)(=O)N(Cc3ccccc3F)C3CCCC3)cc2)C1 (centres unmarked),6.7%
25,Nc1cccc(/C=C/c2nc3cc(N)ccc3[nH]2)c1,3.35%
26,Cc1c(Cl)cccc1NC(=O)COc1ccc(S(=O)(=O)NCc2ccccc2)cc1,4.44%

row,Structure (SMILES),% Inhibition @ 10 uM
1,Cc1ccc(S(=O)(=O)c2cc3c(=O)n4ccccc4nc3n(CCO)c2=N)cc1,-4.59%
2,CC(CN1C(C)CCCC1C)OC(=O)c1ccccc1Br (centres unmarked),-3.86%
3,COc1ccc(Cl)cc1NC(=O)c1ccc(NC(C)=O)cc1,-1.02%
4,CCCCn1c(=O)c2oc3ccccc3c2n(CC(N)=O)c1=O,2.49%
5,CC(C(=O)N1CCc2ccccc2C1)n1sc2ccccc2c1=O (centres unmarked),-5.15%
6,COc1ccccc1C(=O)Nc1ccccc1Br,4.92%
7,CCCCNC(=O)C1CCC(=O)N1Cc1ccc(F)cc1 (centres unmarked),1.62%
8,Cc1occc1C(=O)Nc1ccc(C(C)C)cc1,3.81%
9,O=C(Cn1ncc2c1-c1ccccc1OC2)N1CCC(Cc2ccccc2)CC1,-0.154%
10,CCc1c(Cc2[nH]c(C)c(C(C)=O)c2C)[nH]c(C(=O)O)c1C,1.26%
11,O=c1oc2cc(O)ccc2c2ccccc12,10.2%
12,O=S(=O)(c1ccc(Cl)cc1)n1c(Cc2ccccc2)nc2ccccc21,-2.44%
13,O=C(Nc1ccc(F)c(Cl)c1)NC1CCCCC1,2.94%
14,CCC[C@H](N[C@H](C(=O)NC(C)C)c1ccc(-c2ccc(OC)nc2)cc1)C(=O)NC1(C#N)CC1,-4.72%
15,COc1ccc(S(=O)(=O)N(CC(=O)Nc2ccccc2C)c2ccccc2)cc1OC,-6.3%
16,Cc1ccc2[nH]c3nc(S)nnc3c2c1,12.4%
17,COc1ccccc1C(=O)Nc1cccnc1Cl,2.48%
18,COc1ccc(CC(=O)NC23CC4CC(CC(C4)C2)C3)cc1,-6.17%
19,CN(Cc1ccccc1)C(=O)CN(C)S(=O)(=O)c1cc(Br)cnc1N,1.68%
20,O=C1CC(Cc2ccccc2)C(=O)N1c1ncccn1 (centres unmarked),-5.15%
21,O=C(Nc1ccc(S(=O)(=O)NCCc2ccccc2)cc1)c1ccc(Br)o1,4.57%
22,Cc1cc(Cl)ccc1OCC(=O)NCc1ccncc1,-4.37%
23,CC(C)(C)NC(=O)C1C(=O)CNC23CCCCC2C1c1ccccc1O3 (centres unmarked),-3.75%
24,Cc1cc(NCCN2CCOCC2)c2ccc3ccccc3c2n1,-5.85%
25,Cc1c(C(=O)N2CCN(C)CC2)oc2c3c(ccc12)OCCO3,-0.415%
26,N#CC1=C(N)Oc2cc(O)ccc2C1c1ccc(Cl)c(Cl)c1 (centres unmarked),5.08%
